This passage reports enrichment ratio results from a collection of fitness landscapes (doi:10.1126/science.1257360).

The list shows a part of the results. Where only a bound is given, the exact number is not on record here.

The chains are these.
B1: PhoQ; a variant is named by its letters at X, in order, P23837 (parent)
chain: MKKLLRLFFPLSLRVRFLLATAAVVLVLSLAYGMVALIGYSVSFDKTTFRLLRGESNLFYTLAKWENNKLHVELPENIDKQSPTMTLIYDENGQLLWAQRDVPWLMKMIQPDWLKSNGFHEIEADVNDTSLLLSGDHSIQQQLQEVREDDDDAEMTHSVAVNVYPATSRMPKLTIVVVDTIPVELKSSYMVWSWFIYVLSANLLLVIPLLWVAAWWSLRPIEALAKEVRELEEHNRELLNPATTRELTSLVRNLNRLLKSERERYDKYRTTLTDLTHSLKTPLXXLQXXLRSLRSEKMSVSDAEPVMLEQISRISQQIGYYLHRASMRGGTLLSRELHPVAPLLDNLTSALNKVYQRKGVNISLDISPEISFVGEQNDFVEVMGNVLDNACKYCLEFVEISARQTDEHLYIVVEDDGPGIPLSKREVIFDRGQRVDTLRPGQGVGLAVAREITEQYEGKIVAGESMLGGARMEVIFGRQHSAPKDE

In the assay the parent is B1. As to the kind of experiment: enrichment ratio after two sorts for PhoP signalling (ratio (wild type AVST 3.29)); higher = more functional. The note with it: with PhoP (E. coli).
WEKK: the enrichment ratio was not above 0.25.

In the case of PVTH, the enrichment ratio is not above 0.25. MSRP: the enrichment ratio was not above 0.25. For YESM the value was not above 0.25. Turning to IFFS, the enrichment ratio is not above 0.25. With YNVA, the enrichment ratio was not above 0.25. The figure for HRNL is not above 0.25; for IRIG it is not above 0.25. The figure for VWLQ is not above 0.25; for PYLE it is not above 0.25; for MPLG it is not above 0.25.

For the variant FGYR, the enrichment ratio is not above 0.25. Consider PLIR, for which the enrichment ratio is not above 0.25. With AYWD, the enrichment ratio was not above 0.25.

In the case of HPNS, the enrichment ratio is not above 0.25. The figure for NRDT is not above 0.25; for DMPQ it is not above 0.25; for KVKA it is not above 0.25. Turning to RFRK, the enrichment ratio worked out at 0.263. The figure for DFMM is not above 0.25; for DKDH it is not above 0.25; for WIMS it is not above 0.25.

On to HLNI, for which the enrichment ratio was not above 0.25. With GIYG, the enrichment ratio came out at 0.319. For HSEH the value was not above 0.25; for VTLA, 5.19; for MPNT, not above 0.25. On to KIGI, for which the enrichment ratio is not above 0.25. The figure for YVHR is not above 0.25.

With FGGD, the enrichment ratio was not above 0.25. Regarding NFYQ, the enrichment ratio is not above 0.25. For IIPN, the enrichment ratio is not above 0.25. For YSMH the value was not above 0.25; for VKIF, not above 0.25.

Regarding NHWT, the enrichment ratio is not above 0.25. For NGLV the value was 6.65; for DIKF, not above 0.25; for PAVT, not above 0.25.

For the variant PVPF, the enrichment ratio was not above 0.25. For HTPY the value was not above 0.25. The figure for VSMQ is 2.71; for KGSH it is not above 0.25; for YPGA it is not above 0.25. SELR: the enrichment ratio is 4.87.

DRHW: the enrichment ratio is not above 0.25. Regarding APCM, the enrichment ratio is not above 0.25. Turning to DTYR, the enrichment ratio was not above 0.25. The figure for FWYS is not above 0.25; for TFCV it is 1.59; for WYQR it is not above 0.25. With IWLV, the enrichment ratio is not above 0.25. As to KCKP, the enrichment ratio is not above 0.25.

Regarding AIQG, the enrichment ratio is not above 0.25. The figure for IYER is not above 0.25. Regarding WAHF, the enrichment ratio is not above 0.25. Take YLIH: the enrichment ratio is not above 0.25.

Consider MNTW, for which the enrichment ratio was not above 0.25. For NNYY the value was not above 0.25. For IFTR the value was not above 0.25; for SGAA, 5.99; for QFLQ, not above 0.25.

For QTFV, the enrichment ratio was not above 0.25. With PCEI, the enrichment ratio was not above 0.25. For SQNR the value was not above 0.25; for ETAG, not above 0.25. For FNVY the value was not above 0.25; for FFPL, not above 0.25. For SLWF the value was not above 0.25; for HNVY, not above 0.25; for DMCQ, not above 0.25. For FTHE, the enrichment ratio was not above 0.25. For KIHS, the enrichment ratio was not above 0.25. For PCYY the value was not above 0.25. For VTRM, the enrichment ratio was not above 0.25. The figure for PRAS is not above 0.25; for DISP it is not above 0.25; for PFGC it is not above 0.25. For ELGT the value was not above 0.25; for REPG, not above 0.25; for SEKL, not above 0.25.

Take SEFG: the enrichment ratio is 15.8. For WENS the value was not above 0.25.

Take DGRA: the enrichment ratio was not above 0.25. The figure for TDAS is 11.6; for QLAG it is not above 0.25; for HADN it is not above 0.25.

Turning to LAAI, the enrichment ratio was not above 0.25. With QGDV, the enrichment ratio stood at 7.87. Consider WIQF, for which the enrichment ratio is not above 0.25.

With TSHY, the enrichment ratio is 7.3. For GTWP the value was not above 0.25; for FAHN, not above 0.25; for VPEI, not above 0.25. For AVFT, the enrichment ratio is not above 0.25.

Regarding FYFH, the enrichment ratio is not above 0.25. For KLTL the value was not above 0.25.

For RKTI, the enrichment ratio is not above 0.25. The figure for GFKN is not above 0.25. For ECSF the value was not above 0.25.

Turning to DVPD, the enrichment ratio is not above 0.25.

On to HTYW, for which the enrichment ratio was not above 0.25.

In the case of PQFN, the enrichment ratio was not above 0.25. For AWPH the value was not above 0.25; for SHAL, 0.434; for RDVN, not above 0.25. The figure for SMCD is 2.56; for YRAQ it is not above 0.25. For SIFQ, the enrichment ratio came to 1.13.

Regarding VPHL, the enrichment ratio was not above 0.25.

For the variant HNMT, the enrichment ratio was not above 0.25.

Consider FDFY, for which the enrichment ratio is not above 0.25.

As for YFGW, the enrichment ratio is not above 0.25. For SMVG the value was 8.8; for VAFA, not above 0.25; for MDCN, not above 0.25. For WPNE the value was not above 0.25. Consider LAMK, for which the enrichment ratio was not above 0.25. For the variant PFHN, the enrichment ratio came to 0.873. The figure for GENR is not above 0.25; for YNER it is not above 0.25. In the case of DAQR, the enrichment ratio is not above 0.25. For PIRP the value was not above 0.25; for YVDF, not above 0.25; for PAMN, not above 0.25. For RYDT the value was not above 0.25. The figure for ECFW is not above 0.25; for KQKR it is not above 0.25; for TNQI it is 0.317.

As to NILW, the enrichment ratio was not above 0.25.

As for AVPD, the enrichment ratio was not above 0.25. For FDYM the value was not above 0.25.

Regarding ESIR, the enrichment ratio is not above 0.25. In the case of IFHG, the enrichment ratio is not above 0.25. For TPKR, the enrichment ratio was not above 0.25.

Turning to DGLD, the enrichment ratio is not above 0.25. The figure for VQLH is not above 0.25. For RLAP the value was not above 0.25; for EVDY, not above 0.25; for KWNH, not above 0.25. As to SAER, the enrichment ratio was not above 0.25.

NHGK: the enrichment ratio was not above 0.25. For KIKV the value was not above 0.25; for PGRP, not above 0.25; for QSVN, not above 0.25. The figure for SGCW is not above 0.25. As for NERF, the enrichment ratio is not above 0.25. Take TQKP: the enrichment ratio is not above 0.25. Consider YRKR, for which the enrichment ratio was not above 0.25.

Consider QHAP, for which the enrichment ratio is not above 0.25. For NGDH the value was not above 0.25; for EAYR, not above 0.25. For RAPY, the enrichment ratio was not above 0.25. The figure for LIQC is not above 0.25.
